Test results: the supplement of paper PMC10724272

Compound: C[C@@H]1[C@H](O)[C@@H](C)/C=C/C=C/C=C/C=C/C=C/C=C/C=C/[C@H](O[C@@H]2O[C@H](C)[C@@H](O)[C@H](N)[C@@H]2O)C[C@@H]2O[C@](O)(C[C@@H](O)C[C@@H](O)[C@H](O)CC[C@@H](O)C[C@@H](O)CC(=O)O[C@H]1C)C[C@H](O)[C@H]2C(=O)O [amphotericin B]
Test: CLSI broth microdilution.

Test System	MIC
Candida tropicalis isolate 131 (ERG11 copies: 2, Erg11p: no key change)	0.5 mg/L [S]
Candida tropicalis isolate 93 (ERG11 copies: 2, Erg11p: no key change)	1 mg/L [S]
Candida tropicalis isolate 276 (ERG11 copies: 7, Erg11p: Y132F, S154F (heterozygous))	1 mg/L [S]
Candida tropicalis isolate 39 (ERG11 copies: 8, Erg11p: Y132F, S154F (heterozygous))	1 mg/L [S]
Candida tropicalis isolate 94 (ERG11 copies: 2, Erg11p: no key change)	0.5 mg/L [S]
Candida tropicalis isolate 208 (ERG11 copies: 2, Erg11p: no key change)	0.5 mg/L [S]
Candida tropicalis isolate 336 (ERG11 copies: 2, Erg11p: no key change)	1 mg/L [S]
Candida tropicalis isolate 230 (ERG11 copies: 2, Erg11p: no key change)	0.5 mg/L [S]
Candida tropicalis isolate 181 (ERG11 copies: 2, Erg11p: no key change)	1 mg/L [S]

Compound: CCCCCOc1ccc(-c2ccc(-c3ccc(C(=O)N[C@H]4C[C@@H](O)[C@@H](O)NC(=O)[C@@H]5[C@@H](O)[C@@H](C)CN5C(=O)[C@H]([C@@H](C)O)NC(=O)[C@H]([C@H](O)[C@@H](O)c5ccc(O)cc5)NC(=O)[C@@H]5C[C@@H](O)CN5C(=O)[C@H]([C@@H](C)O)NC4=O)cc3)cc2)cc1 [anidulafungin]
Test: CLSI broth microdilution.

Test System	MIC
Candida tropicalis isolate 59 (ERG11 copies: 2, Erg11p: no key change)	0.12 mg/L [S]
Candida tropicalis isolate 269 (ERG11 copies: 6, Erg11p: Y132F, S154F (heterozygous))	0.12 mg/L [S]
Candida tropicalis isolate 301 (ERG11 copies: 2, Erg11p: no key change)	0.03 mg/L [S]
Candida tropicalis isolate 137 (ERG11 copies: 2, Erg11p: no key change)	0.12 mg/L [S]
Candida tropicalis isolate 17 (ERG11 copies: 2, Erg11p: no key change)	0.12 mg/L [S]
Candida tropicalis isolate 425 (ERG11 copies: 2, Erg11p: no key change)	0.03 mg/L [S]
Candida tropicalis isolate 185 (ERG11 copies: 2, Erg11p: no key change)	0.12 mg/L [S]
Candida tropicalis isolate 83 (ERG11 copies: 2, Erg11p: no key change)	≤ 0.015 mg/L [S]
Candida tropicalis isolate 157 (ERG11 copies: 8, Erg11p: Y132F, S154F (heterozygous))	0.06 mg/L [S]
Candida tropicalis isolate 288 (ERG11 copies: 2, Erg11p: no key change)	0.03 mg/L [S]
Candida tropicalis isolate 164 (ERG11 copies: 2, Erg11p: no key change)	0.06 mg/L [S]
Candida tropicalis isolate 303 (ERG11 copies: 2, Erg11p: no key change)	≤ 0.015 mg/L [S]
Candida tropicalis isolate 62 (ERG11 copies: 2, Erg11p: no key change)	≤ 0.015 mg/L [S]
Candida tropicalis isolate 54 (ERG11 copies: 2, Erg11p: no key change)	0.06 mg/L [S]
Candida tropicalis isolate 307 (ERG11 copies: 2, Erg11p: no key change)	0.12 mg/L [S]
Candida tropicalis isolate 299 (ERG11 copies: 2, Erg11p: no key change)	0.06 mg/L [S]
Candida tropicalis isolate 256 (ERG11 copies: 2, Erg11p: no key change)	0.12 mg/L [S]
Candida tropicalis isolate 401 (ERG11 copies: 10, Erg11p: Y132F, S154F (heterozygous))	0.06 mg/L [S]

Test System	MIC
Candida tropicalis isolate 443 (ERG11 copies: 2, Erg11p: no key change)	0.03 mg/L [S]
Candida tropicalis isolate 80 (ERG11 copies: 2, Erg11p: no key change)	0.12 mg/L [S]
Candida tropicalis isolate 338 (ERG11 copies: 2, Erg11p: no key change)	0.12 mg/L [S]
Candida tropicalis isolate 411 (ERG11 copies: 2, Erg11p: no key change)	0.03 mg/L [S]
Candida tropicalis isolate 246 (ERG11 copies: 2, Erg11p: no key change)	0.12 mg/L [S]
Candida tropicalis isolate 7 (ERG11 copies: 2, Erg11p: no key change)	0.06 mg/L [S]
Candida tropicalis isolate 382 (ERG11 copies: 2, Erg11p: no key change)	≤ 0.015 mg/L [S]
Candida tropicalis isolate 19 (ERG11 copies: 8, Erg11p: Y132F, S154F (homozygous))	0.12 mg/L [S]
Candida tropicalis isolate 211 (ERG11 copies: 2, Erg11p: no key change)	0.06 mg/L [S]
Candida tropicalis isolate 131 (ERG11 copies: 2, Erg11p: no key change)	0.03 mg/L [S]
Candida tropicalis isolate 93 (ERG11 copies: 2, Erg11p: no key change)	0.12 mg/L [S]
Candida tropicalis isolate 276 (ERG11 copies: 7, Erg11p: Y132F, S154F (heterozygous))	0.25 mg/L [S]
Candida tropicalis isolate 39 (ERG11 copies: 8, Erg11p: Y132F, S154F (heterozygous))	0.03 mg/L [S]
Candida tropicalis isolate 94 (ERG11 copies: 2, Erg11p: no key change)	0.12 mg/L [S]
Candida tropicalis isolate 208 (ERG11 copies: 2, Erg11p: no key change)	≤ 0.015 mg/L [S]
Candida tropicalis isolate 336 (ERG11 copies: 2, Erg11p: no key change)	≤ 0.015 mg/L [S]
Candida tropicalis isolate 230 (ERG11 copies: 2, Erg11p: no key change)	≤ 0.015 mg/L [S]
Candida tropicalis isolate 181 (ERG11 copies: 2, Erg11p: no key change)	≤ 0.015 mg/L [S]

Compound: C[C@@H](c1ncncc1F)[C@](O)(Cn1cncn1)c1ccc(F)cc1F [voriconazole]
Test: CLSI broth microdilution.

Test System	MIC
Candida tropicalis isolate 59 (ERG11 copies: 2, Erg11p: no key change)	0.06 mg/L [S]
Candida tropicalis isolate 269 (ERG11 copies: 6, Erg11p: Y132F, S154F (heterozygous))	≥ 8 mg/L [R]
Candida tropicalis isolate 301 (ERG11 copies: 2, Erg11p: no key change)	0.12 mg/L [S]
Candida tropicalis isolate 137 (ERG11 copies: 2, Erg11p: no key change)	0.06 mg/L [S]
Candida tropicalis isolate 17 (ERG11 copies: 2, Erg11p: no key change)	0.12 mg/L [S]
Candida tropicalis isolate 425 (ERG11 copies: 2, Erg11p: no key change)	0.5 µg/mL
Candida tropicalis isolate 185 (ERG11 copies: 2, Erg11p: no key change)	0.25 µg/mL
Candida tropicalis isolate 83 (ERG11 copies: 2, Erg11p: no key change)	0.06 mg/L [S]
Candida tropicalis isolate 157 (ERG11 copies: 8, Erg11p: Y132F, S154F (heterozygous))	> 8 mg/L [R]
Candida tropicalis isolate 288 (ERG11 copies: 2, Erg11p: no key change)	0.12 mg/L [S]
Candida tropicalis isolate 164 (ERG11 copies: 2, Erg11p: no key change)	0.12 mg/L [S]
Candida tropicalis isolate 303 (ERG11 copies: 2, Erg11p: no key change)	0.06 mg/L [S]
Candida tropicalis isolate 62 (ERG11 copies: 2, Erg11p: no key change)	0.12 mg/L [S]
Candida tropicalis isolate 54 (ERG11 copies: 2, Erg11p: no key change)	0.12 mg/L [S]
Candida tropicalis isolate 307 (ERG11 copies: 2, Erg11p: no key change)	0.12 mg/L [S]
Candida tropicalis isolate 299 (ERG11 copies: 2, Erg11p: no key change)	0.06 mg/L [S]
Candida tropicalis isolate 256 (ERG11 copies: 2, Erg11p: no key change)	0.12 mg/L [S]
Candida tropicalis isolate 401 (ERG11 copies: 10, Erg11p: Y132F, S154F (heterozygous))	≥ 8 mg/L [R]

Test System	MIC
Candida tropicalis isolate 443 (ERG11 copies: 2, Erg11p: no key change)	0.06 mg/L [S]
Candida tropicalis isolate 80 (ERG11 copies: 2, Erg11p: no key change)	0.12 mg/L [S]
Candida tropicalis isolate 338 (ERG11 copies: 2, Erg11p: no key change)	0.06 mg/L [S]
Candida tropicalis isolate 411 (ERG11 copies: 2, Erg11p: no key change)	0.25 µg/mL
Candida tropicalis isolate 246 (ERG11 copies: 2, Erg11p: no key change)	0.25 µg/mL
Candida tropicalis isolate 7 (ERG11 copies: 2, Erg11p: no key change)	0.015 mg/L [S]
Candida tropicalis isolate 382 (ERG11 copies: 2, Erg11p: no key change)	0.12 mg/L [S]
Candida tropicalis isolate 19 (ERG11 copies: 8, Erg11p: Y132F, S154F (homozygous))	≥ 8 mg/L [R]
Candida tropicalis isolate 211 (ERG11 copies: 2, Erg11p: no key change)	0.25 µg/mL
Candida tropicalis isolate 131 (ERG11 copies: 2, Erg11p: no key change)	0.06 mg/L [S]
Candida tropicalis isolate 93 (ERG11 copies: 2, Erg11p: no key change)	0.12 mg/L [S]
Candida tropicalis isolate 276 (ERG11 copies: 7, Erg11p: Y132F, S154F (heterozygous))	≥ 8 mg/L [R]
Candida tropicalis isolate 39 (ERG11 copies: 8, Erg11p: Y132F, S154F (heterozygous))	≥ 8 mg/L [R]
Candida tropicalis isolate 94 (ERG11 copies: 2, Erg11p: no key change)	0.06 mg/L [S]
Candida tropicalis isolate 208 (ERG11 copies: 2, Erg11p: no key change)	0.06 mg/L [S]
Candida tropicalis isolate 336 (ERG11 copies: 2, Erg11p: no key change)	0.06 mg/L [S]
Candida tropicalis isolate 230 (ERG11 copies: 2, Erg11p: no key change)	0.03 mg/L [S]
Candida tropicalis isolate 181 (ERG11 copies: 2, Erg11p: no key change)	0.12 mg/L [S]

MIC of invasive clinical C. tropicalis isolates, CLSI broth microdilution (fluconazole 0.12-256 mg/L, up to 1,024 for the azole-resistant cluster and its neighbour group; other ranges not stated); higher = less susceptible. Call: susceptible or wild type [S] / resistant or non-wild type [R] by CLSI breakpoints or cut-offs; intermediate and dose-dependent carry no call. '<=' and '>=' at the end values are inferred; the source marks only some of them. Isolates are numbered anew.
